Results as given in patent publication US12435061B2 (priority 2020, dated 2025).
Like-named read-outs stand apart in the source and are kept apart here.

Columns and labels:
DS-Nh mouse model = experiment: DS-Nh TRPV3 mutation genetic mouse model (Example 16); type: in vivo
minipig = experiment: Dermal irritation (modified Draize test) and clinical observations, topical KM-001 ointment in minipig
[1] = system: cultured human keratinocytes (nHEK cells); experiment: Protein markers of differentiation (involucrin, filaggrin Western Blot) in cultured human keratinocytes
[2] = system: HI 3D model (CRISPR-Cas9 ABCA12 KO skin equivalent); experiment: Organotypic 3D skin culture of Harlequin Ichthyosis (CRISPR-Cas9 ABCA12 KO equivalent)
in vivo = details: male, CD-1, mouse, po
[3] = system: Salmonella typhimurium TA1535, TA1537, TA98, TA100; experiment: Bacterial mutation assay (reverse mutation), Salmonella typhimurium
[4] = system: nHEK cells transfected with TRPV3 mutant; experiment: Keratinocyte Involucrin mRNA expression in TRPV3 mutant transfected cells (QPCR); type: cell-based, human; details: 1 μM KM-001, nHEK transfected with TRPV3 mutant, normalized to HPRT
Description: Involucrin expression levels were measured by QPCR using qPCRBIO Fast qPCR SyGreen Blue Mix, Hi-ROX (cat. #PB20.16-20). […] Involucrin expression levels were normalized to HPRT expression levels in each sample.

[5] = system: Escherichia coli WP2 uvrA; experiment: Bacterial mutation assay (reverse mutation), Escherichia coli; details: for Mean of Plate counts (revertant colonies): WP2 uvrA, 1000 μg/pl
pigs = experiment: Topical pharmacokinetics and skin irritation of KM-001 in pigs (3 days repeated dosing); details: topical KM-001 ointment 0.3% and 1.0%
[6] = Stock and working solution stability test (bioanalytical validation); details: at +4° C
male CD-1 mice = details: CD-1, mouse, in vivo, po, 90 min
Gottingen minipigs = experiment: 7-day preliminary dermal tolerance/toxicity study in minipigs; details: KM-001 Ointment 0.1, 0.3, 1% w/w
[7] = PK/toxicokinetics of KM-001 via IV and topical routes in minipig; details: for AUC(0-inf) / C0 / Cmax / concentration at 24 h / half-life / AUC(0-t) / Tmax: male, minipig, plasma, iv
[8] = mouse, in vivo, po
[9] = 100 nM, 250 nM and 500 nM KM-001, 24 h, 1.2 mM Ca+2 differentiated nHEK
[10] = higher concentration of KM-001 (1000 nM), 24 h
[11] = twice daily dermal, 7 days, minipigs

For `O=C(c1ccc(F)cn1)N1CCC(c2ccc(-c3ccccc3C3CC3)cc2CO)C1` (stereo not drawn) [KM-001], the epidermis differentiation (DS-Nh mouse model) was “normalize epidermis differentiation”, the inflammation (DS-Nh mouse model) was “reduce inflammation” and the signs of irritation (minipig; KM-001 ointments at all strengths, topical) was “None of the pigs showed signs of irritation”. The abnormal clinical signs (minipig; topical and IV KM-001, study period) was “No abnormal clinical signs were observed”, the “filaggrin protein expression (Western Blot)” value [1, 9] was “decrease in the expression” and the “involucrin protein expression (Western Blot)” value [1, 9] was “decrease in the expression”. For the same compound, the “filaggrin protein expression (Western Blot)” value [1, 10] was “does not affect the proteins levels”, the “involucrin protein expression (Western Blot)” value [1, 10] was “does not affect the proteins levels” and the “Keratin 10 expression (IF staining)” value ([2]; HI 3D model, various KM-001 concentrations) was “normalized Keratin 10 expression in a dose dependent manner”. The “Involucrin and Transglutaminase expression” value ([2]; HI 3D skin) was “normalizes Involucrin and Transglutaminase expression dose dependently”, the “structure and function of normal skin” value ([2]; normal 3D skin culture) was “doesn't change structure and function of normal skin” and the concentration at 90 min (in vivo; 3 mg/kg) was 19.1 ± 5.8 ng/mL. The concentration at 90 min (in vivo; 10 mg/kg) was 56.9 ± 12.8 ng/mL, the concentration at 90 min (in vivo; 30 mg/kg) was 180 ± 35 ng/mL and the “toxicity or increases in revertant numbers, toxicity test” value ([3]; 50.0-5000 μg/plate, all five tester strains (incl. E. coli WP2 uvrA), absence or presence of S9) was “No toxicity or relevant increases in revertant numbers were observed”. For the same compound, the “toxicity or increases in revertant numbers, Main Assay” value ([3]; 62.5-1000 μg/plate, plate incorporation, all five tester strains (incl. E. coli WP2 uvrA), absence or presence of S9) was “No toxicity or relevant increases in revertant numbers were observed”, the “induction of reverse mutation” value ([3]; Salmonella typhimurium, absence or presence of S9 metabolism) was “does not induce reverse mutation” and the “Mean of Plate counts (revertant colonies)” value (“Mean of Plate counts” below) ([3]; TA98, 1000 μg/pl, with metabolic activation) was 42. The “Mean of Plate counts” value ([3]; TA98, 1000 μg/pl, without metabolic activation) was 32, the “Mean of Plate counts” value ([3]; TA100, 1000 μg/pl, with metabolic activation) was 147 and the “Mean of Plate counts” value ([3]; TA100, 1000 μg/pl, without metabolic activation) was 129. For the same compound, the “Mean of Plate counts” value ([3]; TA1535, 1000 μg/pl, with metabolic activation) was 16, the “Mean of Plate counts” value ([3]; TA1535, 1000 μg/pl, without metabolic activation) was 15 and the “Mean of Plate counts” value ([3]; TA1537, 1000 μg/pl, with metabolic activation) was 17. For the same compound, the “Mean of Plate counts” value ([3]; TA1537, 1000 μg/pl, without metabolic activation) was 19, the “Involucrin mRNA expression” value [4] was “did not affect involucrin expression” and the “induction of reverse mutation” value ([5]; Escherichia coli, absence or presence of S9 metabolism) was “does not induce reverse mutation”. The “Mean of Plate counts” value ([5]; with metabolic activation) was 35, the “Mean of Plate counts” value ([5]; without metabolic activation) was 30 and the abnormal clinical signs (pigs) was “No abnormal clinical signs were observed”. For the same compound, the “stability of stock and working solutions” value [6] was “up to 54 days”, the “Plasma levels at sac” value (male CD-1 mice; 3 mg/kg) was 19.1 ± 5.8 ng/mL and the “Plasma levels at sac” value (male CD-1 mice; 10 mg/kg) was 56.9 ± 12.8 ng/mL. For the same compound, the “Plasma levels at sac” value (male CD-1 mice; 30 mg/kg) was 180 ± 35 ng/mL, the “Clinical Chemistry” value (Gottingen minipigs; [11]) was “No changes were recorded” and the Coagulation (Gottingen minipigs; [11]) was “No changes were recorded”. For the same compound, the Haematology (Gottingen minipigs; [11]) was “No relevant changes were observed”, the “Macroscopic observations (gross pathology)” value (Gottingen minipigs; [11]) was “No systemic or local treatment-related changes were noted” and the Urinalyses (Gottingen minipigs; [11]) was “No changes were recorded”. The “Terminal body weight and organ weights” value (Gottingen minipigs; twice daily dermal, 7 days, minipigs, vs controls) was “No relevant changes were observed in terminal body weight and organ weights”, the “Microscopic observations of treated skin” value (Gottingen minipigs; vs untreated site and placebo controls) was “did not show any treatment-related changes” and the CL/F ([7]; IV 0.50 mg/kg, Day 0, male pig) was 24.67 mL/min/kg. For the same compound, the Vz/F ([7]; IV 0.50 mg/kg, Day 0, male pig) was 6.69 L/kg, the CL/F ([7]; IV 8.00 mg/kg, Day 1, male pig) was 29.83 mL/min/kg and the Vz/F ([7]; IV 8.00 mg/kg, Day 1, male pig) was 24.6 L/kg. For the same compound, the AUC(0-inf) ([7]; 0.5 mg/kg) was 337 ng·h/mL, the C0 ([7]; 0.5 mg/kg) was 552 ng/mL and the Cmax ([7]; 0.5 mg/kg) was 418 ng/mL. The concentration at 24 h ([7]; 0.5 mg/kg) was under 0.3 ng/mL, the half-life ([7]; 0.5 mg/kg) was 188 min and the AUC(0-t) ([7]; 0.5 mg/kg, AUC0-t, IV 0.50 mg/kg, Day 0, male pig) was 275 ng·h/mL. The Tmax ([7]; 0.5 mg/kg, Tmax, IV 0.50 mg/kg, Day 0, male pig) was 5 min, the AUC(0-inf) ([7]; 8 mg/kg) was 4460 ng·h/mL and the C0 ([7]; 8 mg/kg) was 2710 ng/mL. The Cmax ([7]; 8 mg/kg) was 2190 ng/mL, the concentration at 24 h ([7]; 8 mg/kg) was 61.6 ng/mL and the half-life ([7]; 8 mg/kg) was 570 min. For the same compound, the AUC(0-t) ([7]; 8 mg/kg, AUC0-24 h, IV 8.00 mg/kg, Day 1, male pig) was 3620 ng·h/mL, the AUC(0-t) ([7]; 8 mg/kg, AUC0-t, IV 8.00 mg/kg, Day 1, male pig) was 3620 ng·h/mL and the Tmax ([7]; 8 mg/kg, Apparent maximum concentration time (tmax), IV bolus, 0.5 and 8 mg/kg) was 5 min. The Tmax ([7]; 8 mg/kg, Tmax, IV 8.00 mg/kg, Day 1, male pig) was 5 min, the “KM-001 in plasma after topical application (skin to systemic exposure)” value ([7]; topically treated pig, ointment 0.1-1%) was “no skin to systemic exposure observed” and the “KM-001 detection (matrix not given; skin samples were also collected)” value [8] was “undetectable”.
